# According to the supplement of paper PMC8728848:
# The other results are listed elsewhere or left out.
# B1: Surfactant Protein D (Human); Neck + Carbohydrate Recognition Domain (NCRD) (Homo sapiens) (protein)
# chain: MLLFLLSALVLLTQPLGYLEAEMKTYSHRTMPSACTLVMCSSVESGLPGRDRDGREGPRGEKGDPGLPGAAGQAGMPGQAGPVGPKGDNGSVGEPGPKGDTGPSGPPGPPGVPGPAGREGALGKQGNIGPQGKPGPKGEAGPKGEVGAPGMQGSAGARGLAGPKGERGVPGERGVPGNTGAAGSAGAMGPQGSPGARGPPGLKGDKGIPGDKGAKGESGLPDVASLRQQVEALQGQVQHLQAAFSQYKKVELFPNGQSVGEKIFKTAQFVKPFTEAQLLCTQAGGQLASPRSAAENAALQQLVVAKNEAAFLSMTDSKTEGKFTYPTGESLVYSNWAPGEPNDDGGSADCVEIFTNGKWNDRACGAKRLVVCEF
# How the values were obtained:
# Experiment in all cases: glycan array binding signal (z-score within array); higher = stronger binding
# Conditions in all cases: glycan notation: IUPAC condensed, linker removed; mutation: E347A
# [1] = molecular target: Neu5Ac(a2-3)Gal(b1-3)[Fuc(a1-4)]GlcNAc
# Summary of the method: (§1)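 The binding signal is a Z-score computed within each array. Data were drawn from 3228 arrays in the Consortium for Functional Glycomics database, restricted to those with a known protein sequence. Scores were averaged over arrays of the same protein sequence at different concentrations or buffers, and over linkers, and negative values can be taken as non-binding.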
# [2] = molecular target: Neu5Ac(a2-3)Gal(b1-3)[Fuc(a1-4)]GlcNAc(b1-3)Gal(b1-4)[Fuc(a1-3)]GlcNAc
# Summary of the method: as §1
# [3] = molecular target: Neu5Ac(a2-3)Gal(b1-3)[Neu5Ac(a2-3)Gal(b1-4)]GlcNAc
# Summary of the method: as §1
# [4] = molecular target: Neu5Ac(a2-3)Gal(b1-3)[Neu5Ac(a2-6)]GalNAc
# Summary of the method: as §1
# [5] = molecular target: Neu5Ac(a2-3)Gal(b1-4)Glc
# Summary of the method: as §1
# [6] = molecular target: Neu5Ac(a2-3)Gal(b1-4)GlcNAc
# Summary of the method: as §1
# [7] = molecular target: Neu5Ac(a2-3)Gal(b1-4)GlcNAc(b1-2)Man(a1-3)[GlcNAc(b1-2)Man(b1-4)GlcNAc(b1-2)Man(a1-6)]Man(b1-4)GlcNAc(b1-4)GlcNAc
# Summary of the method: as §1
# [8] = molecular target: Neu5Ac(a2-3)Gal(b1-4)GlcNAc(b1-2)Man(a1-3)[Neu5Ac(a2-6)Gal(b1-4)GlcNAc(b1-2)Man(a1-6)]Man(b1-4)GlcNAc(b1-4)GlcNAc
# Summary of the method: as §1
# [9] = molecular target: Neu5Ac(a2-3)Gal(b1-4)GlcNAc(b1-3)Gal(b1-3)GlcNAc
# Summary of the method: as §1
# [10] = molecular target: Neu5Ac(a2-3)Gal(b1-4)GlcNAc(b1-3)Gal(b1-4)GlcNAc
# Summary of the method: as §1
# [11] = molecular target: Neu5Ac(a2-3)Gal(b1-4)GlcNAc(b1-3)Gal(b1-4)GlcNAc(b1-3)Gal(b1-4)GlcNAc
# Summary of the method: as §1
# [12] = molecular target: Neu5Ac(a2-3)Gal(b1-4)GlcNAc(b1-3)Gal(b1-4)[Fuc(a1-3)]GlcNAc
# Summary of the method: as §1
# [13] = molecular target: Neu5Ac(a2-3)Gal(b1-4)GlcNAc(b1-6)[Gal(b1-3)]GalNAc
# Summary of the method: as §1
# [14] = molecular target: Neu5Ac(a2-3)Gal(b1-4)GlcNAc(b1-6)[Neu5Ac(a2-3)Gal(b1-3)]GalNAc
# Summary of the method: as §1
# [15] = molecular target: Neu5Ac(a2-3)Gal(b1-4)GlcNAc6S
# Summary of the method: as §1
# [16] = molecular target: Neu5Ac(a2-3)Gal(b1-4)[Fuc(a1-3)]GlcNAc
# Summary of the method: as §1
# [17] = molecular target: Neu5Ac(a2-3)Gal(b1-4)[Fuc(a1-3)]GlcNAc(b1-3)Gal
# Summary of the method: as §1
# [18] = molecular target: Neu5Ac(a2-3)Gal(b1-4)[Fuc(a1-3)]GlcNAc(b1-3)Gal(b1-4)GlcNAc
# Summary of the method: as §1
# [19] = molecular target: Neu5Ac(a2-3)Gal(b1-4)[Fuc(a1-3)]GlcNAc(b1-3)Gal(b1-4)[Fuc(a1-3)]GlcNAc(b1-3)Gal(b1-4)[Fuc(a1-3)]GlcNAc
# Summary of the method: as §1
# [20] = molecular target: Neu5Ac(a2-3)Gal(b1-4)[Fuc(a1-3)]GlcNAc(b1-6)[Gal(b1-3)]GalNAc
# Summary of the method: as §1
# [21] = molecular target: Neu5Ac(a2-3)Gal(b1-4)[Fuc(a1-3)]GlcNAc6S
# Summary of the method: as §1
# [22] = molecular target: Neu5Ac(a2-3)Gal6S(b1-4)GlcNAc
# Summary of the method: as §1
# [23] = molecular target: Neu5Ac(a2-3)Gal6S(b1-4)[Fuc(a1-3)]GlcNAc
# Summary of the method: as §1
# [24] = molecular target: Neu5Ac(a2-3)GalNAc
# Summary of the method: as §1
# [25] = molecular target: Neu5Ac(a2-3)GalNAc(b1-4)GlcNAc
# Summary of the method: as §1
# [26] = molecular target: Neu5Ac(a2-3)[GalNAc(b1-4)]Gal(b1-4)Glc
# Summary of the method: as §1
# [27] = molecular target: Neu5Ac(a2-3)[GalNAc(b1-4)]Gal(b1-4)GlcNAc
# Summary of the method: as §1
# [28] = molecular target: Neu5Ac(a2-3)[Neu5Ac(a2-6)]GalNAc
# Summary of the method: as §1
# [29] = molecular target: Neu5Ac(a2-6)Gal
# Summary of the method: as §1
# [30] = molecular target: Neu5Ac(a2-6)Gal(b1-4)Glc
# Summary of the method: as §1
# [31] = molecular target: Neu5Ac(a2-6)Gal(b1-4)GlcNAc
# Summary of the method: as §1
# [32] = molecular target: Neu5Ac(a2-6)Gal(b1-4)GlcNAc(b1-2)Man(a1-3)[Gal(b1-4)GlcNAc(b1-2)Man(a1-6)]Man(b1-4)GlcNAc(b1-4)GlcNAc
# Summary of the method: as §1
# [33] = molecular target: Neu5Ac(a2-6)Gal(b1-4)GlcNAc(b1-2)Man(a1-3)[GlcNAc(b1-2)Man(a1-6)]Man(b1-4)GlcNAc(b1-4)GlcNAc
# Summary of the method: as §1
# [34] = molecular target: Neu5Ac(a2-6)Gal(b1-4)GlcNAc(b1-2)Man(a1-3)[GlcNAc(b1-2)Man(b1-4)GlcNAc(b1-2)Man(a1-6)]Man(b1-4)GlcNAc(b1-4)GlcNAc
# Summary of the method: as §1
# [35] = molecular target: Neu5Ac(a2-6)Gal(b1-4)GlcNAc(b1-2)Man(a1-3)[Neu5Ac(a2-6)Gal(b1-4)GlcNAc(b1-2)Man(a1-6)]Man(b1-4)GlcNAc(b1-4)GlcNAc
# Summary of the method: as §1
# [36] = molecular target: Neu5Ac(a2-6)Gal(b1-4)GlcNAc(b1-2)Man(a1-6)[Gal(b1-4)GlcNAc(b1-2)Man(a1-3)]Man(b1-4)GlcNAc(b1-4)GlcNAc
# Summary of the method: as §1
# [37] = molecular target: Neu5Ac(a2-6)Gal(b1-4)GlcNAc(b1-2)Man(a1-6)[GlcNAc(b1-2)Man(a1-3)]Man(b1-4)GlcNAc(b1-4)GlcNAc
# Summary of the method: as §1
# [38] = molecular target: Neu5Ac(a2-6)Gal(b1-4)GlcNAc(b1-3)Gal(b1-4)GlcNAc
# Summary of the method: as §1
# [39] = molecular target: Neu5Ac(a2-6)Gal(b1-4)GlcNAc(b1-3)Gal(b1-4)[Fuc(a1-3)]GlcNAc(b1-3)Gal(b1-4)[Fuc(a1-3)]GlcNAc
# Summary of the method: as §1
# [40] = molecular target: Neu5Ac(a2-6)Gal(b1-4)GlcNAc6S
# Summary of the method: as §1
# [41] = molecular target: Neu5Ac(a2-6)GalNAc
# Summary of the method: as §1
# [42] = molecular target: Neu5Ac(a2-6)GalNAc(b1-4)GlcNAc
# Summary of the method: as §1
# [43] = molecular target: Neu5Ac(a2-8)Neu5Ac
# Summary of the method: as §1
# [44] = molecular target: Neu5Ac(a2-8)Neu5Ac(a2-3)Gal(b1-4)Glc
# Summary of the method: as §1
# [45] = molecular target: Neu5Ac(a2-8)Neu5Ac(a2-3)[GalNAc(b1-4)]Gal(b1-4)Glc
# Summary of the method: as §1
# [46] = molecular target: Neu5Ac(a2-8)Neu5Ac(a2-8)Neu5Ac
# Summary of the method: as §1
# [47] = molecular target: Neu5Ac(a2-8)Neu5Ac(a2-8)Neu5Ac(a2-3)Gal(b1-4)Glc
# Summary of the method: as §1
# [48] = molecular target: Neu5Ac(a2-8)Neu5Ac(a2-8)Neu5Ac(a2-3)[GalNAc(b1-4)]Gal(b1-4)Glc
# Summary of the method: as §1
# [49] = molecular target: Neu5Ac(a2-8)Neu5Ac(a2-8)Neu5Ac(a2-8)Neu5Ac(a2-3)[GalNAc(b1-4)]Gal(b1-4)Glc
# Summary of the method: as §1
# [50] = molecular target: Neu5Ac(b2-6)Gal(b1-4)GlcNAc
# Summary of the method: as §1
# [51] = molecular target: Neu5Ac(b2-6)GalNAc
# Summary of the method: as §1
# [52] = molecular target: Neu5Ac9Ac(a2-6)Gal(b1-4)GlcNAc
# Summary of the method: as §1
# [53] = molecular target: Neu5Gc(a2-3)Gal(b1-3)GlcNAc
# Summary of the method: as §1
# [54] = molecular target: Neu5Gc(a2-3)Gal(b1-3)[Fuc(a1-4)]GlcNAc
# Summary of the method: as §1
# [55] = molecular target: Neu5Gc(a2-3)Gal(b1-4)Glc
# Summary of the method: as §1
# [56] = molecular target: Neu5Gc(a2-3)Gal(b1-4)GlcNAc
# Summary of the method: as §1
# [57] = molecular target: Neu5Gc(a2-3)Gal(b1-4)[Fuc(a1-3)]GlcNAc
# Summary of the method: as §1
# [58] = molecular target: Neu5Gc(a2-6)Gal(b1-4)GlcNAc
# Summary of the method: as §1
# [59] = molecular target: Neu5Gc(a2-6)GalNAc
# Summary of the method: as §1
# [60] = molecular target: Neu5Gc(b2-6)Gal(b1-4)GlcNAc
# Summary of the method: as §1
binder,measurement,setting,value
B1,glycan array binding signal (z-score),[1],-0.192
same,glycan array binding signal (z-score),[2],-0.074
same,glycan array binding signal (z-score),[3],0.156
same,glycan array binding signal (z-score),[4],0.002
same,glycan array binding signal (z-score),[5],-0.421
same,glycan array binding signal (z-score),[6],0.093
same,glycan array binding signal (z-score),[7],-0.453
same,glycan array binding signal (z-score),[8],-0.294
same,glycan array binding signal (z-score),[9],-0.154
same,glycan array binding signal (z-score),[10],-0.458
same,glycan array binding signal (z-score),[11],0.019
same,glycan array binding signal (z-score),[12],0.031
same,glycan array binding signal (z-score),[13],-0.139
same,glycan array binding signal (z-score),[14],-0.476
same,glycan array binding signal (z-score),[15],-0.28
same,glycan array binding signal (z-score),[16],0.108
same,glycan array binding signal (z-score),[17],-0.17
same,glycan array binding signal (z-score),[18],0.034
same,glycan array binding signal (z-score),[19],-0.459
same,glycan array binding signal (z-score),[20],0.121
same,glycan array binding signal (z-score),[21],-0.432
same,glycan array binding signal (z-score),[22],0.541
same,glycan array binding signal (z-score),[23],-0.255
same,glycan array binding signal (z-score),[24],0.115
same,glycan array binding signal (z-score),[25],0.052
same,glycan array binding signal (z-score),[26],0.492
same,glycan array binding signal (z-score),[27],-0.024
same,glycan array binding signal (z-score),[28],0.057
same,glycan array binding signal (z-score),[29],-0.01
same,glycan array binding signal (z-score),[30],-0.281
same,glycan array binding signal (z-score),[31],-0.009
same,glycan array binding signal (z-score),[32],0.106
same,glycan array binding signal (z-score),[33],-0.301
same,glycan array binding signal (z-score),[34],0.172
same,glycan array binding signal (z-score),[35],-0.066
same,glycan array binding signal (z-score),[36],-0.165
same,glycan array binding signal (z-score),[37],-0.09
same,glycan array binding signal (z-score),[38],0.013
same,glycan array binding signal (z-score),[39],-0.185
same,glycan array binding signal (z-score),[40],0.244
same,glycan array binding signal (z-score),[41],0.034
same,glycan array binding signal (z-score),[42],0.21
same,glycan array binding signal (z-score),[43],-0.039
same,glycan array binding signal (z-score),[44],-0.471
same,glycan array binding signal (z-score),[45],-0.009
same,glycan array binding signal (z-score),[46],-0.103
same,glycan array binding signal (z-score),[47],-0.19
same,glycan array binding signal (z-score),[48],0.122
same,glycan array binding signal (z-score),[49],0.449
same,glycan array binding signal (z-score),[50],-0.324
same,glycan array binding signal (z-score),[51],-0.157
same,glycan array binding signal (z-score),[52],-0.451
same,glycan array binding signal (z-score),[53],0
same,glycan array binding signal (z-score),[54],-0.071
same,glycan array binding signal (z-score),[55],-0.139
same,glycan array binding signal (z-score),[56],-0.097
same,glycan array binding signal (z-score),[57],-0.155
same,glycan array binding signal (z-score),[58],-0.339
same,glycan array binding signal (z-score),[59],-0.423
same,glycan array binding signal (z-score),[60],-0.406
